In US20230312684A1 (PINETREE THERAPEUTICS, published 2023) one finds Kd data, which are given here for two molecules.

For the assay, the target named is T1, VEGF165 (UniProt P15692 27-191).
T1 sequence: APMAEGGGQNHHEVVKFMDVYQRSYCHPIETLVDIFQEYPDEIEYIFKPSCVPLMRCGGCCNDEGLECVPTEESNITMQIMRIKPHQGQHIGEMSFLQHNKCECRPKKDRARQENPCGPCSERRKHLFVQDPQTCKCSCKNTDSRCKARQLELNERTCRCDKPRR

B1: SEQ ID NO: 122, b1b2-Fc (NRP1, WT, single b1b2) (Fc fusion)
chain: EDFKCMEALGMESGEIHSDQITASSQYSTNWSAERSRLNYPENGWTPGEDSYREWIQVDLGLLRFVTAVGTQGAISKETKKKYYVKTYKIDVSSNGEDWITIKEGNKPVLFQGNTNPTDVVVAVFPKPLITRFVRIKPATWETGISMRFEVYGCKITDYPCSGMLGMVSGLISDSQITSSNQGDRNWMPENIRLVTSRSGWALPPAPHSYINEWLQIDLGEEKIVRGIIIQGGKHRENKVFMRKFKIGYSNNGSDWKMIMDDSKRKAKSFEGNNNYDTPELRTFPALSTRFIRIYPERATHGGLGLRMELLGCGGGGSGGGGS[human IgG1 Fc left out]
As for B1, binding was characterised by a dissociation constant (Kd) of 0.63 nM.

B2: SEQ ID NO: 154, b1b2-Fc (NRP2, WT, single b1b2) (Fc fusion)
chain: ENFQCNVPLGMESGRIANEQISASSTYSDGRWTPQQSRLHGDDNGWTPNLDSNKEYLQVDLRFLTMLTAIATQGAISRETQNGYYVKSYKLEVSTNGEDWMVYRHGKNHKVFQANNDATEVVLNKLHAPLLTRFVRIRPQTWHSGIALRLELFGCRVTDAPCSNMLGMLSGLIADSQISASSTQEYLWSPSAARLVSSRSGWFPRIPQAQPGEEWLQVDLGTPKTVKGVIIQGARGGDSITAVEARAFVRKFKVSYSLNGKDWEYIQDPRTQQPKLFEGNMHYDTPDIRRFDPIPAQYVRVYPERWSPAGIGMRLEVLGCGGGGSGGGGS[human IgG1 Fc left out]
In the case of B2, the equilibrium dissociation constant (Kd) (commonly the equilibrium constant for the complex coming apart) is 3 nM.
